Assay [1] has as its target T1, IL-7 receptor (IL-7R: CD127/CD132) on cells (human, UniProt P16871 21-459; P31785 23-369).
T1 sequence (looked up) 1: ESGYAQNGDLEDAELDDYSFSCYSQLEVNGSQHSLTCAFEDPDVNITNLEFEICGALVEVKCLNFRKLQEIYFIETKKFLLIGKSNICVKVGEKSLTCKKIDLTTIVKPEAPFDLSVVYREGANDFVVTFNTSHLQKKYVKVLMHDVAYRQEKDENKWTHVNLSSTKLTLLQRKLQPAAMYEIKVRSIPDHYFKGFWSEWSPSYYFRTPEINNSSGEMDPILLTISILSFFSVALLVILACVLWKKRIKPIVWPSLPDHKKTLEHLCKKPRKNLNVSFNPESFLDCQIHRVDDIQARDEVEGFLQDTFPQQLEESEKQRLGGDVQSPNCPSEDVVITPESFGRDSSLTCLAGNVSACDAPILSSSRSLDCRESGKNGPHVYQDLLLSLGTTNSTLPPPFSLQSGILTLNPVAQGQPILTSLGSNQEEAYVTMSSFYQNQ
T1 sequence (looked up) 2: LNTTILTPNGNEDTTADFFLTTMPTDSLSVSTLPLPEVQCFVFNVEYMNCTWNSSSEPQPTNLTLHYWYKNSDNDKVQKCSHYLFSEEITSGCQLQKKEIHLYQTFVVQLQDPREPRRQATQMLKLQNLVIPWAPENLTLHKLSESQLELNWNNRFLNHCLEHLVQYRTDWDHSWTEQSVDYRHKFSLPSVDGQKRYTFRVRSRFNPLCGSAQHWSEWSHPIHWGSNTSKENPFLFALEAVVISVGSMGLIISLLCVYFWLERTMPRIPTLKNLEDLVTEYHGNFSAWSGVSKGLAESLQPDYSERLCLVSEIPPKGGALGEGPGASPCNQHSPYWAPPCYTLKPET
In words: cell-based or functional assay.

Assay [2] addresses T2, CD127 recombinant protein (Histidine tagged, Sino ref 10975-H08H) (UniProt P16871 21-239).
T2 construct: bought; used in the CD127 sandwich ELISA; also called CD127 receptor; IL-7Ralpha; not shown: histidine tag
T2 sequence (looked up): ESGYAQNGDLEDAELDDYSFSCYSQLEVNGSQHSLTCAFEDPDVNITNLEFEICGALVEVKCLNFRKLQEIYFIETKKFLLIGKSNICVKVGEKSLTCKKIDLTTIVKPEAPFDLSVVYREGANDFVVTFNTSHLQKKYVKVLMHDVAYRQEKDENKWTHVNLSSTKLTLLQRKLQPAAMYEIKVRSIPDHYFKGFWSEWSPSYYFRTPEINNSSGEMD
The assay can be described thus: sandwich ELISA: PD-1 immobilised, fusion preincubated with His-tagged CD127, anti-His detection. Background: An ELISA detects its analyte on a solid surface through an enzyme-linked reagent.

Assay [3] has as its target T2, CD127 recombinant protein (Histidine …). In words: sandwich ELISA, PD-1 immobilised, molecule preincubated with His-tagged CD127, anti-His-biotin + streptavidin-peroxidase, 450 nm.
Assay [4] has as its target T3, recombinant human PD-1 (rPD1; Sino Biologicals, reference 10377-H08H) (human, UniProt Q15116 part only).
T3 construct: bought; also called hPD1; PD-1 receptor
In words: ELISA: human PD-1 immobilised (given as ED50).

Assay [5] concerns the target T2, CD127 recombinant protein (Histidine …). In words: double binding ELISA: PD-1 immobilised, revelation with CD127 receptor (given as ED50).

From patent publication US20230303648A1 (OSE IMMUNOTHERAPEUTICS, published 2023) come the findings set out here.

Chain of UniProt Q15116 (Q15116 25-167 limits assumed): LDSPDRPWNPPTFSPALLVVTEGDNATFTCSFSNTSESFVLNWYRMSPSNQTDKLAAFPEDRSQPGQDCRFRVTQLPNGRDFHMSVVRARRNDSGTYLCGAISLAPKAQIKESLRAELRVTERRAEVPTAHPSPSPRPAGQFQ

B1: anti PD-1 IL-7 K81R bifunctional molecule, IgG4m isotype, (GGGGS)3 linker (other)
heavy: QIQLVQSGSELKKPGASVKVSCKASGYTFTHYAMNWVRQAPGQGLEWMGWINTNTGEPTYAQGFTGRFVFSLDTSVSTAYLQISSLKAEDTAVYYCAREREPGMDNWGQGTLVTVSSASTKGPSVFPLAPCSRSTSESTAALGCLVKDYFPEPVTVSWNSGALTSGVHTFPAVLQSSGLYSLSSVVTVPSSSLGTKTYTCNVDHKPSNTKVDKRV[… human IgG4 Fc with S228P L445P (EU numbers) …]GGGGSGGGGSGGGGSDCDIEGKDGKQYESVLMVSIDQLLDSMKEIGSNCLNNEFNFFKRHICDANKEGMFLFRAARKLRQFLKMNSTGDFDLHLLRVSEGTTILLNCTGQVKGRKPAALGEAQPTKSLEENKSLKEQKKLNDLCFLKRLLQEIKTCWNKILMGTKEH
light: DVVMTQSPLSLPVTLGQPASISCRSSQSLVHANTNTYLEWYQQRPGQSPRLLIYKVSNRFSGVPDRFSGSGSGTDFTLKISRVEAEDVGVYYCFQGTHVPNTFGQGTKLEIKRTVAAPSVFIFPPSDEQLKSGTASVVCLLNNFYPREAKVQWKVDNALQSGNSQESVTEQDSKDSTYSLSSTLTLSKADYEKHKVYACEVTHQGLSSPVTKSFNRGEC
notes: as m11 with IL-7 K81R; also called IgG4 G4S3 IL7 K81R
As usually defined, the EC50 is the concentration that produces a half-maximal response. Regarding B1, the “pSTAT5 EC50 in CD3 T cells of human PBMCs” value (“pSTAT5 EC50 in CD3 T cells” for short) in assay [1] came out at 79 ng/mL. In assay [2], the EC50 was determined as 0.0202 µg/mL.

B2: anti PD-1 IL-7 Q11E bifunctional molecule, IgG4m isotype, (GGGGS)3 linker (other)
heavy: QIQLVQSGSELKKPGASVKVSCKASGYTFTHYAMNWVRQAPGQGLEWMGWINTNTGEPTYAQGFTGRFVFSLDTSVSTAYLQISSLKAEDTAVYYCAREREPGMDNWGQGTLVTVSSASTKGPSVFPLAPCSRSTSESTAALGCLVKDYFPEPVTVSWNSGALTSGVHTFPAVLQSSGLYSLSSVVTVPSSSLGTKTYTCNVDHKPSNTKVDKRV[… human IgG4 Fc with S228P L445P (EU numbers) …]GGGGSGGGGSGGGGSDCDIEGKDGKEYESVLMVSIDQLLDSMKEIGSNCLNNEFNFFKRHICDANKEGMFLFRAARKLRQFLKMNSTGDFDLHLLKVSEGTTILLNCTGQVKGRKPAALGEAQPTKSLEENKSLKEQKKLNDLCFLKRLLQEIKTCWNKILMGTKEH
light: B1 light
notes: as m11 with IL-7 Q11E; also called IgG4 G4S3 IL7 Q11E; IgG4 IL7 Q11E
With B2, in assay [1], the “pSTAT5 EC50 in CD3 T cells” value was determined as 77 ng/mL. Also, the EC50 in assay [2] was determined as 0.0185 µg/mL.

B3: anti PD-1 IL-7 Y12F bifunctional molecule, IgG4m isotype, (GGGGS)3 linker (other)
heavy: QIQLVQSGSELKKPGASVKVSCKASGYTFTHYAMNWVRQAPGQGLEWMGWINTNTGEPTYAQGFTGRFVFSLDTSVSTAYLQISSLKAEDTAVYYCAREREPGMDNWGQGTLVTVSSASTKGPSVFPLAPCSRSTSESTAALGCLVKDYFPEPVTVSWNSGALTSGVHTFPAVLQSSGLYSLSSVVTVPSSSLGTKTYTCNVDHKPSNTKVDKRV[… human IgG4 Fc with S228P L445P (EU numbers) …]GGGGSGGGGSGGGGSDCDIEGKDGKQFESVLMVSIDQLLDSMKEIGSNCLNNEFNFFKRHICDANKEGMFLFRAARKLRQFLKMNSTGDFDLHLLKVSEGTTILLNCTGQVKGRKPAALGEAQPTKSLEENKSLKEQKKLNDLCFLKRLLQEIKTCWNKILMGTKEH
light: B1 light
notes: as m11 with IL-7 Y12F; also called IgG4 G4S3 IL7 Y12F
On to B3, for which the “pSTAT5 EC50 in CD3 T cells” value in assay [1] is 66 ng/mL. The EC50 in assay [2] turned out to be 0.0223 µg/mL.

B4: anti PD-1 IL-7 D74E bifunctional molecule, IgG1m isotype, (GGGGS)3 linker (other)
heavy: QIQLVQSGSELKKPGASVKVSCKASGYTFTHYAMNWVRQAPGQGLEWMGWINTNTGEPTYAQGFTGRFVFSLDTSVSTAYLQISSLKAEDTAVYYCAREREPGMDNWGQGTLVTVSS[… human IgG1 constant region with changes …]GGGGSGGGGSGGGGSDCDIEGKDGKQYESVLMVSIDQLLDSMKEIGSNCLNNEFNFFKRHICDANKEGMFLFRAARKLRQFLKMNSTGEFDLHLLKVSEGTTILLNCTGQVKGRKPAALGEAQPTKSLEENKSLKEQKKLNDLCFLKRLLQEIKTCWNKILMGTKEH
light: B1 light
notes: as m24 with IL-7 D74E; also called D74 mutant
For B4, the binding result in assay [3] is reported as “binds”.

B5: anti PD-1 IL-7 Q22E bifunctional molecule, IgG4m isotype, (GGGGS)3 linker (other)
heavy: QIQLVQSGSELKKPGASVKVSCKASGYTFTHYAMNWVRQAPGQGLEWMGWINTNTGEPTYAQGFTGRFVFSLDTSVSTAYLQISSLKAEDTAVYYCAREREPGMDNWGQGTLVTVSSASTKGPSVFPLAPCSRSTSESTAALGCLVKDYFPEPVTVSWNSGALTSGVHTFPAVLQSSGLYSLSSVVTVPSSSLGTKTYTCNVDHKPSNTKVDKRV[… human IgG4 Fc with S228P L445P (EU numbers) …]GGGGSGGGGSGGGGSDCDIEGKDGKQYESVLMVSIDELLDSMKEIGSNCLNNEFNFFKRHICDANKEGMFLFRAARKLRQFLKMNSTGDFDLHLLKVSEGTTILLNCTGQVKGRKPAALGEAQPTKSLEENKSLKEQKKLNDLCFLKRLLQEIKTCWNKILMGTKEH
light: B1 light
notes: as m11 with IL-7 Q22E; also called IGG4 G4S3 IL7 Q22E
As to B5, the “pSTAT5 EC50 in CD3 T cells” value in assay [1] amounted to 84 ng/mL. Besides, the EC50 in assay [2] is 0.0174 µg/mL.

B6: anti-PD-1 bifunctional molecule comprising IL-7 D74Q, GGGGS linker, IgG1N298A isotype (other)
heavy: QIQLVQSGSELKKPGASVKVSCKASGYTFTHYAMNWVRQAPGQGLEWMGWINTNTGEPTYAQGFTGRFVFSLDTSVSTAYLQISSLKAEDTAVYYCAREREPGMDNWGQGTLVTVSS[… human IgG1 constant region with changes …]GGGGSDCDIEGKDGKQYESVLMVSIDQLLDSMKEIGSNCLNNEFNFFKRHICDANKEGMFLFRAARKLRQFLKMNSTGQFDLHLLKVSEGTTILLNCTGQVKGRKPAALGEAQPTKSLEENKSLKEQKKLNDLCFLKRLLQEIKTCWNKILMGTKEH
light: B1 light
notes: also called IgG1m G4S D74Q
Turning to B6, the EC50 in assay [4] stood at 0.0054 µg/mL; in assay [5], 0.0157 µg/mL.

B7: anti-PD-1 bifunctional molecule comprising IL-7 D74N, GGGGS linker, IgG1N298A isotype (other)
heavy: QIQLVQSGSELKKPGASVKVSCKASGYTFTHYAMNWVRQAPGQGLEWMGWINTNTGEPTYAQGFTGRFVFSLDTSVSTAYLQISSLKAEDTAVYYCAREREPGMDNWGQGTLVTVSS[… human IgG1 constant region with changes …]GGGGSDCDIEGKDGKQYESVLMVSIDQLLDSMKEIGSNCLNNEFNFFKRHICDANKEGMFLFRAARKLRQFLKMNSTGNFDLHLLKVSEGTTILLNCTGQVKGRKPAALGEAQPTKSLEENKSLKEQKKLNDLCFLKRLLQEIKTCWNKILMGTKEH
light: B1 light
notes: also called IgG1m G4S D74N
As to B7, the EC50 in assay [4] was determined as 0.0058 µg/mL; in assay [5] it was 0.0085 µg/mL.
